From PMC9071441
Substitutions are numbered along the chain they refer to. These are yes or no findings as the source states them, for the method shown. Binding seen in cells or lysates may run through a third protein. Some results given as binding are weak or reduced against the parent protein; the word gives no strength. Where a sequence is shown, tags or fusion partners need not be part of it.

Protein sequences, listed by entry. Tags and fused reporters are not part of them. Lines headed by an entry give the natural chain unless they say otherwise; changes in a name come on top.
UniProt P23772: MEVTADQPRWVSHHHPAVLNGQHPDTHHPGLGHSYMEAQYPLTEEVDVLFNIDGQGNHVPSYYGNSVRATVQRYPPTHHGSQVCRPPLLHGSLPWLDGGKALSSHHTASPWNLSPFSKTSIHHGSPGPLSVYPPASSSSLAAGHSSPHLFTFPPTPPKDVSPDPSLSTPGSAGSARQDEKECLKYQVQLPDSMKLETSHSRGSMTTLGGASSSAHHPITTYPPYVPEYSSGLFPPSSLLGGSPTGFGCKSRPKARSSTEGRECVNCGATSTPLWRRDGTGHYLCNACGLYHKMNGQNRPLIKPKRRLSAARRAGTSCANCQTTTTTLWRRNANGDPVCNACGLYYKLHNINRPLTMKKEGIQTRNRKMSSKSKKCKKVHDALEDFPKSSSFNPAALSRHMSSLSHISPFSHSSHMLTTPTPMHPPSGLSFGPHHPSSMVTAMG

Experiments:
[1] = biological target: T1, mNeonGreen-tagged full-length T-bet (mouse) (UniProt Q9JKD8); assay: co-IP; HEK293T cells transiently transfected with mNeonGreen-tagged and HA-tagged proteins; lysates (300 mM NaCl, 0.5% IGEPAL CA-630) treated with benzonase, diluted to 150 mM NaCl, mNeonGreen-Trap magnetic agarose beads 1 hr at 4°C; washes with 150 mM and 500 mM NaCl; immunoblot with anti-HA
T1 sequence: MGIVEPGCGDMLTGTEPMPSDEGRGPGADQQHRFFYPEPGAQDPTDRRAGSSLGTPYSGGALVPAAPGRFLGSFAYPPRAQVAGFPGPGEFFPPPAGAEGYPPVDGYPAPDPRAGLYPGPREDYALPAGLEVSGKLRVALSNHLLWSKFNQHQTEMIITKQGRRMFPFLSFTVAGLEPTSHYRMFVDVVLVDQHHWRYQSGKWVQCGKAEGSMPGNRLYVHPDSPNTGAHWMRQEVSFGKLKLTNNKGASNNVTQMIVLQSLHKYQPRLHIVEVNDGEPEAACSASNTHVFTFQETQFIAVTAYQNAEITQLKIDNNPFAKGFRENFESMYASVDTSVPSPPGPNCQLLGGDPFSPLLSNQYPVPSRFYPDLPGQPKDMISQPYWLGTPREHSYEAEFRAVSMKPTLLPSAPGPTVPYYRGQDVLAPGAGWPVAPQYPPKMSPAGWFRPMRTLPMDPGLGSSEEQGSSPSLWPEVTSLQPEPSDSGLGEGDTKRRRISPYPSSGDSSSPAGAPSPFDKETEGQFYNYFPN

[2] = biological target: T2, mNeonGreen-tagged T-bet DNA binding domain (aa 135-326), wild type (mouse) (UniProt Q9JKD8); assay: as above
T2 sequence: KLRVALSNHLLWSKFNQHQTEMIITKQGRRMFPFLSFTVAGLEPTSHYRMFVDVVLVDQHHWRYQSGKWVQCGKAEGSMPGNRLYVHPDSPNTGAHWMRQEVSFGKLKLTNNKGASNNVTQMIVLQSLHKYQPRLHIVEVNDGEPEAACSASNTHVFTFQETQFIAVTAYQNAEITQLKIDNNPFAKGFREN

[3] = biological target: T3, mNeonGreen-tagged T-bet DNA binding domain (aa 135-326) Q305W (mouse) (UniProt Q9JKD8); assay: as above
T3 sequence: T2 sequence with Q171W

[4] = biological target: T4, mNeonGreen-tagged T-bet DNA binding domain (aa 135-326) I257E (mouse) (UniProt Q9JKD8); assay: FRET or BRET; FLIM-FRET (time-domain fluorescence lifetime imaging of mTagBFP donor with mNeonGreen acceptor) in transfected HEK293T cells fixed with 2% formaldehyde 36 hrs after transfection
T4 sequence: T2 sequence with I123E

[5] = biological target: T4, mNeonGreen-tagged T-bet DNA binding domain (aa 135-326) I257E (mouse); assay: FRET or BRET; flow-cytometric FRET in HEK293T cells co-transfected with 730 ng of each vector for mTagBFP- and mNeonGreen-tagged proteins; read 32 hours after transfection; 405 nm laser line, 530/30 bandpass filter; DFRET efficiency
[6] = biological target: T2, mNeonGreen-tagged T-bet DNA binding domain (aa 135-326), wild type (mouse); assay: as above
[7] = biological target: T5, mNeonGreen-tagged T-bet DNA binding domain (aa 135-326) R163A/R164A (mouse) (UniProt Q9JKD8); assay: as above
T5 sequence: T2 sequence with R29A, R30A

[8] = biological target: T6, mNeonGreen-tagged T-bet DNA binding domain (aa 135-326) R324W (mouse) (UniProt Q9JKD8); assay: as above
T6 sequence: T2 sequence with R190W

With “N-terminally double-HA-tagged GATA3 G342S (from UniProt P23772 1-443)” the binding [1] was “binds”.

For “N-terminally double-HA-tagged GATA3 K346A + H348L (from UniProt P23772 1-443)”, the binding [1] was “binds”.

With “N-terminally double-HA-tagged GATA3, wild type (from UniProt P23772 1-443)” the binding [1] was “binds”.

“full-length GATA3 with C-terminal double HA tag (from UniProt P23772 1-443)” was tested, and the binding [2] was “binds” and the binding [3] was “binds”.

“mTagBFP-tagged GATA3 DNA binding domain (aa 259-369) (from UniProt P23772 259-369) (domain or fragment)” was tested, and the binding [4] was “no binding”, the binding [5] was “no binding” and the binding [6] was “binds”. The binding [7] was “no binding” and the binding [8] was “no binding”.
